Results reported in PubChem BioAssay AID485281 (National Center for Advancing Translational Sciences (NCATS), 2010).
Values joined by “and” are separate entries in the source; they are usually repeats but may differ in a detail not shown here. Identical values can stand only once. The whole screen tested about 350,000 compounds, of which about 260 (0.074%) were called active. The shares of active, inactive and inconclusive entries below differ from those in the screen. Calls follow the shape of the dose curve; as a rule, active = well fitted inhibition curve with a large enough effect; inconclusive = small, poorly fitted or top-dose-only effect; inactive = no such curve, though single readings can be large or run the other way. Potencies of inconclusive entries are doubtful fits and often do not repeat.

What follows are molecules tested against Ferritin light chain (Equus caballus) (UniProt P02791) (assay: qHTS Assay for Identification of Novel General Anesthetics). Conditions: apoferritin/1-aminoanthracene competitive binding, fluorescence; series mostly up to 77.5 µM.
Procedure, shortened: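 Horse-spleen apoferritin (10 uM) was mixed with 50% saturated 1-aminoanthracene in PBS, exposed to compounds for 10 min at room temperature, and read for fluorescence (ex 380 nm, em 535 nm). Competitive displacement was fitted with a four-parameter Hill equation.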
Also: nearly all actives have a fitted effect of over 20% in size.
Potency is read from the fitted curve at half-maximal effect; tags tell the direction and shape of the fitted curve.

Sequence of UniProt P02791 (P02791 whole entry, looked up): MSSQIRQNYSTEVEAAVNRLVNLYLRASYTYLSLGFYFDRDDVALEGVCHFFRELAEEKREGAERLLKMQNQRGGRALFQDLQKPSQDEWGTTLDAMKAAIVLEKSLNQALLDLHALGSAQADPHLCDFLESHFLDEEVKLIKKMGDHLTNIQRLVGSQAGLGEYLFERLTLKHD

Potency, active:
O=C(COC(=O)Cn1cnc2ccccc2c1=O)Nc1ccc(Cl)c(C(F)(F)F)c1 25.1 µM

Potency, inconclusive:
O=C(NCc1ccccc1)c1ccc2c(=O)n(CCCN3CCCC3=O)c(=S)[nH]c2c1 35.5 µM [inhibitor, single point]
CCOC(=O)C1=C(C)N=c2s/c(=C\c3ccc(OCC(=O)O)cc3)c(=O)n2C1c1ccc(OC(C)C)cc1 (stereo unspecified) 50.1 µM [inhibitor, single point]
Cc1ccc(Cn2ccnc2SCC(=O)Nc2ccccc2C(F)(F)F)cc1 12.6 µM [inhibitor, partial curve]
Cc1noc(C)c1CSc1ccc2ccccc2n1 50.1 µM [inhibitor, single point]
Cc1ccc(NC(=O)CNc2cc(S(=O)(=O)N3CCOCC3)ccc2NCC2CCCO2)cc1F (stereo unspecified) 14.1 µM [inhibitor, partial curve]
CCCN1C(=O)/C(=C/c2ccccc2OCc2ccc(C(=O)O)cc2)NC1=S 25.1 µM [inhibitor, partial curve]
CCN1CCN(c2ccc(S(=O)(=O)N3CCCCC3)cc2NC(=O)/C=C/c2cccc(OC)c2OC)CC1 3.16 µM [inhibitor, full curve]
Cc1oc(-c2ccccc2Cl)nc1CS(=O)CC(=O)NCc1ccccc1Cl (stereo unspecified) 35.5 µM [inhibitor, single point] and 31.6 µM [inhibitor, partial curve]
N/C(=N\OC(=O)Cc1ccc(Cl)cc1)c1cccnc1 31.6 µM [inhibitor, single point]
COc1ccc(Cl)cc1-c1nc(SCC(=O)NC(C)C(C)C)n[nH]1 (stereo unspecified) 28.2 µM [inhibitor, single point]
CCOC(=O)N1CCN(S(=O)(=O)c2ccc(C(=O)N(CCN(CC)CC)c3nc4c(C)cccc4s3)cc2)CC1 15.8 µM [inhibitor, partial curve]
N#Cc1c(SCC(=O)OCc2ccccc2)nsc1SCC(=O)OCc1ccccc1 25.1 µM [inhibitor, single point]
Cc1nc2scc(-c3cccs3)c2c(=O)n1-n1cccc1 50.1 µM [inhibitor, single point]
O=C(Nc1nnc(-c2ccc3c(c2)CCCC3)o1)c1ccccc1 50.1 µM [inhibitor, single point]
Cc1ccc(C(=O)c2ccc([N+](=O)[O-])cc2)c(C)c1 31.6 µM [inhibitor, partial curve]
COc1cc(CNCCCN2CCOCC2)cc(Br)c1OCc1ccc(Cl)cc1 31.6 µM [inhibitor, partial curve]
O=C(OCc1csc(-c2ccccc2)n1)c1ccccc1O 14.1 µM [inhibitor, partial curve]
O=C(CCc1nnc(CCC2CCCCC2)o1)NCCc1cccnc1 25.1 µM [inhibitor, partial curve]
COc1cc(NC(=O)C/C(C)=N/NC(=O)C(=O)NC2CCCCC2)c(OC)cc1Cl 25.1 µM [inhibitor, partial curve]
CCCCOP(=O)(OCCCC)C1(NS(=O)(=O)c2ccccc2)C=CC(=O)c2ccccc21 (stereo unspecified) 25.1 µM [inhibitor, partial curve]
Cc1ccc(OCC(=O)O/N=C(\N)Cc2ccc([N+](=O)[O-])cc2)cc1C 28.2 µM [inhibitor, single point]
Cc1cc2c(cc1Cl)C(c1ccccc1C)CC(=O)O2 (stereo unspecified) 10 µM [inhibitor, single point]
COC(=O)C1=C(C)N(Cc2ccccc2)C(=NCCc2cccnc2)N[C@H]1c1ccc(Br)cc1 17.8 µM [inhibitor, partial curve]
CCNC(=O)c1ccc(C23CC4CC(CC(C4)C2)C3)o1 3.98 µM [inhibitor, full curve, poor fit]
O=C(NCc1ccc2c(c1)OCO2)C1CC(=O)N(C2CCCCCCC2)C1 (stereo unspecified) 31.6 µM [inhibitor, partial curve]
COc1ccccc1-c1cc(C(=O)NCCc2ccccc2)no1 39.8 µM [inhibitor, partial curve] and 35.5 µM [inhibitor, partial curve]
COc1cccc(C(=O)Oc2c(CN3CCOCC3)cc(Cl)c3cccnc23)c1 35.5 µM [inhibitor, partial curve]
Cc1ccc(C)c(N2CCN(C(=O)Cn3c(=O)[nH]c4ccsc4c3=O)CC2)c1 22.4 µM [inhibitor, partial curve]
Cc1c(C#N)c(N=CN(C)C)c(C(=O)c2ccc(Br)cc2)n1-c1ccccc1 39.8 µM [inhibitor, single point]
COC(=O)c1ccc(CSc2nnc(N)s2)cc1 50.1 µM [inhibitor, single point]
COC(=O)c1cc(COC(=O)c2cccnc2SC)oc1C 28.2 µM [inhibitor, single point]
OCC#Cc1cnc2ccccc2c1 35.5 µM [inhibitor, single point]
COc1ccc(CN=C2NN=C(c3ccccc3)CS2)cc1 20 µM [inhibitor, partial curve]
O=C(c1c[nH]c(C(=O)N2CCN(c3ccccc3F)CC2)c1)c1cccc(Cl)c1Cl 5.01 µM [inhibitor, partial curve]
O=C(c1ccc2c(c1)OCO2)C1CCCN(Cc2ccc3cccc(F)c3n2)C1 (stereo unspecified) 35.5 µM [inhibitor, partial curve]
CC1CCC(NC(=O)Cn2c3c(c(-c4ccccc4Cl)cc2=O)CCC3)CC1 (stereo unspecified) 50.1 µM [inhibitor, single point]
CC(C)COc1ccc(C(=O)N(Cc2ccco2)C2CCS(=O)(=O)C2)cc1 (stereo unspecified) 17.8 µM [inhibitor, partial curve, poor fit]
CCOC(=O)c1sc(NC(=O)CSc2nncs2)c(C(=O)OCC)c1C 4.47 µM [inhibitor, full curve]
CCS(=O)(=O)c1oc(-c2ccc(F)cc2)nc1S(=O)(=O)c1ccc(Br)cc1 12.6 µM [inhibitor, partial curve]
Clc1ccc(COc2ccccn2)c(Cl)c1 39.8 µM [inhibitor, partial curve]
COc1ccc(C(=O)c2cc3cccc(OC)c3o2)cc1 28.2 µM [inhibitor, partial curve]
CCCCOc1ccc(C2(C)NC(=O)NC2=O)cc1 (stereo unspecified) 20 µM [inhibitor, partial curve]
COC(=O)c1ccc(NC(=S)N2CCN(Cc3cccc(C)c3)CC2)cc1 31.6 µM [inhibitor, single point]
COc1cc(/C=N/NC(=O)Cn2nc([N+](=O)[O-])cc2C)cc(Br)c1OCc1ccccc1 6.31 µM [inhibitor, full curve]
Cc1ccc(C(=O)N2CCN(c3ccccc3Cl)CC2)cc1[N+](=O)[O-] 35.5 µM [inhibitor, partial curve]
O=C(Nc1ccc(Oc2cccnc2)cc1)c1ccccc1F 35.5 µM [inhibitor, partial curve]
Cc1nc2scc(-c3ccccc3)c2c(=O)n1N=C1C=CC(=O)C=C1 35.5 µM [inhibitor, partial curve]
O=C(Nc1cccc(Cl)c1)c1ccc(NCCCN2CCOCC2)c([N+](=O)[O-])c1 39.8 µM [inhibitor, partial curve]

Potency, inactive:
CCOc1ccc(NC(=O)Cn2c(=O)n(Cc3ccco3)c(=O)c3ccc(C(=O)NC4CCCC4)cc32)cc1
CCCN(CC(=O)Nc1ccc(Cl)cc1Cl)C(=O)/C=C/c1ccco1
COc1ccc(NC(=O)CN2CCN(CC(=O)Nc3ccccc3F)CC2)cc1OC
CCN(Cc1ccccc1)c1ccc(/C=C(\C#N)c2ccccn2)cc1
Cc1ccc(C(=O)NCCSCc2ccc(Cl)cc2Cl)cc1[N+](=O)[O-]
O=C(Nc1nc2nccc(-c3ccccc3)n2n1)c1ccccc1
CCOC(=O)C1=C(CSc2nc3ccccc3s2)NC(=O)NC1c1cc(C)ccc1C (stereo unspecified)
CC1CCN(S(=O)(=O)c2ccc(C(=O)Nc3ccccc3-c3nc4ccccc4[nH]3)cc2)CC1
O=C(NNC(=S)Nc1ccccc1Cl)c1ccccc1
CC(CCc1ccc(O)cc1)N(C)CCc1ccccc1 (stereo unspecified)
Cc1ccc(NC(=O)c2ccccc2F)nc1
CC(Nc1ccc(-c2nc(-c3ccco3)no2)cc1[N+](=O)[O-])c1ccccc1 (stereo unspecified)
CN1C(=O)c2cccc3c(S(=O)(=O)NCCc4ccccc4)ccc1c23
CC(=O)C1=C(c2ccc(Cl)c(Cl)c2)N(C(C)=O)n2cnnc2S1
COc1ccccc1NS(=O)(=O)c1cccc(NC(=O)c2[nH]c(C)c(C(C)=O)c2C)c1
CC(NC(=O)c1cc2ccccc2o1)c1ccccc1 (stereo unspecified)
COc1ccccc1CN1CCN(C2CCN(C(=O)Nc3ccccc3)CC2)C(=O)C1=O
